Source: PubChem BioAssay AID1508649 (National Center for Advancing Translational Sciences (NCATS), 2021)
The whole screen tested about 43,000 compounds, of which about 830 (1.9%) were called active. The shares of active, inactive and inconclusive entries below differ from those in the screen. How the source made its calls: active means clear falling dose curves in both reporters; inconclusive means both reporters move, but less clearly or upward; inactive means either reporter flat; the % is the NLuc reporter signal. No potency is given beside an inconclusive call; the fits are too rough.
On the % scale 0 is the no-effect control and ±100 the full control effect; potency means the concentration at half of the fitted maximal effect; tags describe the fitted curve by direction and shape.

Test: Cell-based coincidence reporter assay to measure PMP22 gene transcription in S16 Pmp22-F2sN cells - Primary screen
Conditions: S16 Pmp22-F2sN Schwann cells (luciferase reporters placed in the Pmp22 gene), FLuc/NLuc coincidence luminescence, 24 h; measured here: NLuc reporter readout, at 57.5 µM (top of the series); activity change, negative = inhibition: at the top concentration
Method in brief: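 Transcriptional readout in edited S16(c9) cells: two luciferases reported from the Pmp22 locus, measured in turn after 24 h compound incubation.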
In the case of `Cc1ccc(C(=O)c2oc3ccccc3c2NC(=O)COc2ccccc2Cl)cc1`, the “activity change, negative = inhibition” value is reported as inactive: 4.89%.
In the case of `CCOc1ccc(-n2c(CC)nc3c(cnn3-c3ccc(Cl)cc3)c2=O)cc1`, the Potency is reported as inconclusive [phenotype inactive, single point].
With `CCOC(=O)c1c(NC(=O)CSc2cn(CCNC(=O)c3ccccc3OC)c3ccccc23)sc2c1CCC2` the Potency was inconclusive [phenotype inactive, partial curve, poor fit].
With `CCn1ccc2cc(S(=O)(=O)N3CCC(C(=O)NCCc4ccc(SC)cc4)CC3)ccc21` the Potency was inconclusive [phenotype inactive, single point].
With `Cc1ccc(CN(C(=O)COc2ccc(C(C)(C)C)cc2)C2CCS(=O)(=O)C2)o1` (stereo not drawn) the Potency was inconclusive [phenotype inactive, single point].
In the case of `CCOc1ccc(CCNc2ncnc3onc(-c4ccc(F)cc4)c23)cc1OCC`, the Potency is reported as inconclusive [phenotype inactive, single point].
In the case of `COc1ccccc1CNC(=O)c1cc(Sc2cccc(Cl)c2)nc2ccccc12`, the Potency is reported as inconclusive [phenotype inactive, partial curve, poor fit].
With `COc1cccc(CNC(=O)c2cc3c(=O)n(C)c4ccccc4c3n2C)c1` the Potency was active: 12.7 µM.
In the case of `Cc1ccccc1OCC(=O)Nc1ccccc1C(=O)OCc1cc(=O)n2c(C)csc2n1`, the Potency is reported as inconclusive [phenotype inactive, partial curve].
With `CC(C)(C)c1ccc(C(=O)N2CC(=O)Nc3ccc(F)cc3C2c2ccc(F)cc2)cc1` (stereo not drawn) the Potency was inconclusive [phenotype inactive, partial curve].
For `COc1ccc(C2c3c(-c4ccc(F)cc4)n[nH]c3C(=O)N2c2ccccc2)cc1OC` (stereo not drawn), the Potency was inconclusive [phenotype inactive, single point].
With `Cn1cc(S(=O)(=O)N2CCCCC2)cc1C(=O)NCc1ccc(Cl)cc1` the Potency was inconclusive [phenotype inactive, single point].
With `CC(C)Oc1cccc(C(=O)Nc2ccc3oc(-c4ccccc4)nc3c2)c1` the Potency was inconclusive [phenotype inactive, single point].
In the case of `Cc1ccc(S(=O)(=O)N(CC(=O)Nc2c(C)cccc2C)c2cccc(Cl)c2)cc1`, the Potency is reported as inconclusive [phenotype inactive, single point].
For `O=C(Cn1cc(S(=O)(=O)Cc2ccccc2Cl)c2ccccc21)Nc1cccc(C(F)(F)F)c1`, the Potency was inconclusive [phenotype inactive, single point].
In the case of `CCCN(CCC)CCCNC(=O)C1CCN(S(=O)(=O)c2cccc3nsnc23)CC1`, the Potency is reported as inconclusive [phenotype inactive, partial curve, poor fit].
With `Cc1cc(C)cc(-n2ccnc2SCC(=O)Nc2ccc(C)c(Cl)c2)c1` the Potency was inconclusive [phenotype inactive, partial curve, poor fit].
With `CCC(=O)N1c2ccccc2CC1C(=O)NCCc1ccc(Cl)cc1` (stereo not drawn) the Potency was inconclusive [phenotype inactive, full curve, poor fit].
In the case of `COc1ccc(Cl)cc1NC(=O)CCCS(=O)(=O)c1nc(-c2ccc(OC)c(OC)c2)cc(C(F)(F)F)n1`, the Potency is reported as active: 5.04 µM.
With `Cc1ccc(C)c(C(=O)CSc2nc3cc(C(=O)NC4CCCC4)ccc3c(=O)n2CC2CCCO2)c1` (stereo not drawn) the Potency was inconclusive [phenotype inactive, single point].
With `Cc1ccc(Nc2nc(C)c(NC(=O)c3ccc(C)cc3)c(Nc3ccc(C)cc3)n2)cc1` the Potency was inconclusive [phenotype inactive, partial curve, poor fit].
For `COC(=O)c1cccc(CN2C(=O)SC(Nc3ccc(Cl)cc3)C2=O)c1` (stereo not drawn), the Potency was inconclusive [phenotype inactive, partial curve, poor fit].
In the case of `COc1ccc(NC(=O)CC2C(=O)N(c3ccc(C)cc3)C(=O)N2Cc2ccc(C)cc2)cc1` (stereo not drawn), the “activity change, negative = inhibition” value is reported as inactive: -35.8%.
In the case of `Cc1ccc(C)c(N2CCN(C(=O)c3nn(C)c4c3CS(=O)(=O)c3ccccc3-4)CC2)c1`, the Potency is reported as inconclusive [phenotype inactive, partial curve, poor fit].
With `CCc1ccccc1Nc1cc(C(=O)NCCCN(C)C2CCCCC2)c2ccccc2n1` the Potency was active: 20 µM.
For `CCn1nc(C)c2c(-c3ccccc3)cc(=O)n(C(C)C(=O)NCCc3ccccc3)c21` (stereo not drawn), the Potency was inconclusive [phenotype inactive, single point].
For `COc1ccc(C(=O)NCC(c2ccc3c(c2)OCO3)N2CCOCC2)cc1OC` (stereo not drawn), the Potency was inconclusive [phenotype inactive, single point].
In the case of `COc1cccc(CNC(=O)c2cc3ccc4cccnc4c3[nH]2)c1`, the “activity change, negative = inhibition” value is reported as inactive: -5.52%.
For `CC(Sc1nc2c([nH]c3ccccc32)c(=O)n1-c1ccccc1)c1ccccc1` (stereo not drawn), the Potency was inconclusive [phenotype inactive, single point].
For `COc1ccccc1OCc1nc(-c2cccc(C)c2)no1`, the “activity change, negative = inhibition” value was inactive: 18.8%.
With `Cc1nn(-c2ccccc2)c2sc(C(=O)Nc3cccc(Br)c3)cc12` the Potency was inconclusive [phenotype inactive, single point].
For `COc1ccc(-n2c3c(cc(-c4nc(-c5ccc(Cl)cc5)cs4)c2=O)C(=O)CC(C)(C)C3)cc1Cl`, the Potency was inconclusive [phenotype inactive, single point].
With `CCOC(=O)CSc1nc2c(sc3ccccc32)c(=O)n1Cc1ccc(OC)cc1` the Potency was inconclusive [phenotype inactive, single point].
In the case of `Cc1ccc(SCc2nc(-c3ccc(C(=O)NCC(C)c4ccccc4)cc3)oc2C)cc1` (stereo not drawn), the Potency is reported as inconclusive [phenotype inactive, partial curve].
For `COc1cc(NS(=O)(=O)c2ccc(-c3cc(C)no3)cc2)cc(OC)c1`, the Potency was active: 3.35 µM.
For `CCOc1ccc(C(=O)Nc2ccc3c(c2)OCCO3)cc1Br`, the “activity change, negative = inhibition” value was inactive: 3.99%.
For `COc1ccc(-c2cc(C(F)(F)F)nc(NCc3ccc(F)cc3)n2)cc1`, the Potency was inconclusive [phenotype inactive, partial curve, poor fit].
In the case of `Cc1ccc(S(=O)(=O)c2cc3cc(C(=O)Nc4ccc(C)cc4C)ccc3oc2=O)cc1`, the Potency is reported as inconclusive [phenotype inactive, single point].
In the case of `COc1ccc(CCNc2ncnc3onc(C)c23)c(OC)c1`, the Potency is reported as active: 4.01 µM.
In the case of `COc1cccc2c1cc1c(=O)n(CC(=O)N3CCC(C)CC3)nc(C)n12`, the “activity change, negative = inhibition” value is reported as inactive: -7.46%.
In the case of `CCN(C(=O)Cn1ncc2c(=O)oc3ccccc3c21)c1ccccc1F`, the “activity change, negative = inhibition” value is reported as inactive: 0.373%.
For `CCc1cccc(C)c1NC(=O)CCS(=O)(=O)c1ccc2c(c1)oc(=O)n2C`, the Potency was inconclusive [phenotype inactive, partial curve].
With `COc1ccc(-c2noc(CSc3nc4ccccc4[nH]3)n2)cc1` the Potency was inconclusive [phenotype inactive, partial curve].
In the case of `Cc1ccc(C)c(NC(=O)CSc2nc(=O)n(Cc3ccncc3)c3c2CCC3)c1`, the “activity change, negative = inhibition” value is reported as inactive: -11.2%.
In the case of `CCOc1ccc(Nc2c(S(=O)(=O)c3ccc(Cl)cc3)cnc3ccc(OCC)cc23)cc1`, the Potency is reported as inconclusive [phenotype inactive, single point].
With `Cc1cccc(-n2ncc(C(=O)N3CCN(c4ccc(C)cc4C)CC3)c2C2CCN(C(=O)OC(C)(C)C)CC2)c1` the Potency was inconclusive [phenotype inactive, single point].
With `Cc1cccc(-c2nnn3c2nc(NCc2ccc4c(c2)OCO4)c2ccccc23)c1` the Potency was active: 16.8 µM.
For `COc1cccc(Nc2sc(C(=O)c3ccc(Cl)cc3)c(N)c2C(=O)NCc2ccc(C)cc2)c1`, the Potency was active: 8.91 µM.
With `COc1cc(OC)c(N(C)C(=O)c2cn(C3CCCC3)c(=O)c3c2c2ccccc2n3C)cc1Cl` the Potency was inconclusive [phenotype inactive, single point].
In the case of `COc1cccc(CNC(=O)c2ccc3c(=O)n4nc(Nc5ccccc5)sc4nc3c2)c1`, the Potency is reported as inconclusive [phenotype inactive, partial curve].
With `COc1ccc(-c2cc3nc(C)c(CCC(=O)N4CCN(c5ccc(F)cc5)CC4)c(C)n3n2)c(OC)c1` the Potency was inconclusive [phenotype inactive, partial curve, poor fit].
With `COc1ccc(-n2cc(-c3ccccc3)c3c(NC4CCCC4)ncnc32)cc1` the Potency was inconclusive [phenotype inactive, single point].
With `Cc1cc(CN2CCN(c3cccc(C)c3C)CC2)cs1` the “activity change, negative = inhibition” value was inactive: -29.9%.
With `CCC1CCCCN1S(=O)(=O)c1cc(C(=O)Nc2ccc(C)c(F)c2)ccc1F` (stereo not drawn) the Potency was inconclusive [phenotype inactive, partial curve, poor fit].
With `O=C(CSc1nnc(-c2ccccc2F)o1)Nc1cccc(C(F)(F)F)c1` the “activity change, negative = inhibition” value was inactive: 5.33%.
For `CCC1CCCCN1S(=O)(=O)c1ccc(C(=O)Nc2sc3c(c2C(N)=O)CCC3)cc1` (stereo not drawn), the Potency was inconclusive [phenotype inactive, single point].
With `COc1ccc(CN(C(=O)c2cc3ccccc3oc2=O)C2CCS(=O)(=O)C2)cc1OC` (stereo not drawn) the “activity change, negative = inhibition” value was inactive: 9.41%.
With `COCCNC(=O)Cn1c(=O)n(CCCCCC(=O)NCc2ccccc2Cl)c(=O)c2sccc21` the “activity change, negative = inhibition” value was inactive: -19.8%.
